# From PMC4336329 (PLoS ONE, 2015)
# In all, about 310,000 compounds went through this assay and about 2,200 (0.71%) showed an effect of 50% or more. The effect is printed as a negative number. This is one part of the list.
# Target: human ether-à-go-go-related gene (hERG) potassium channel (human, UniProt Q12809)
# Assay: primary screen, population patch clamp on CHO cells stably expressing hERG
# Sequence of human ether-à-go-go-related gene (hERG) potassium channel (Q12809 whole entry, looked up): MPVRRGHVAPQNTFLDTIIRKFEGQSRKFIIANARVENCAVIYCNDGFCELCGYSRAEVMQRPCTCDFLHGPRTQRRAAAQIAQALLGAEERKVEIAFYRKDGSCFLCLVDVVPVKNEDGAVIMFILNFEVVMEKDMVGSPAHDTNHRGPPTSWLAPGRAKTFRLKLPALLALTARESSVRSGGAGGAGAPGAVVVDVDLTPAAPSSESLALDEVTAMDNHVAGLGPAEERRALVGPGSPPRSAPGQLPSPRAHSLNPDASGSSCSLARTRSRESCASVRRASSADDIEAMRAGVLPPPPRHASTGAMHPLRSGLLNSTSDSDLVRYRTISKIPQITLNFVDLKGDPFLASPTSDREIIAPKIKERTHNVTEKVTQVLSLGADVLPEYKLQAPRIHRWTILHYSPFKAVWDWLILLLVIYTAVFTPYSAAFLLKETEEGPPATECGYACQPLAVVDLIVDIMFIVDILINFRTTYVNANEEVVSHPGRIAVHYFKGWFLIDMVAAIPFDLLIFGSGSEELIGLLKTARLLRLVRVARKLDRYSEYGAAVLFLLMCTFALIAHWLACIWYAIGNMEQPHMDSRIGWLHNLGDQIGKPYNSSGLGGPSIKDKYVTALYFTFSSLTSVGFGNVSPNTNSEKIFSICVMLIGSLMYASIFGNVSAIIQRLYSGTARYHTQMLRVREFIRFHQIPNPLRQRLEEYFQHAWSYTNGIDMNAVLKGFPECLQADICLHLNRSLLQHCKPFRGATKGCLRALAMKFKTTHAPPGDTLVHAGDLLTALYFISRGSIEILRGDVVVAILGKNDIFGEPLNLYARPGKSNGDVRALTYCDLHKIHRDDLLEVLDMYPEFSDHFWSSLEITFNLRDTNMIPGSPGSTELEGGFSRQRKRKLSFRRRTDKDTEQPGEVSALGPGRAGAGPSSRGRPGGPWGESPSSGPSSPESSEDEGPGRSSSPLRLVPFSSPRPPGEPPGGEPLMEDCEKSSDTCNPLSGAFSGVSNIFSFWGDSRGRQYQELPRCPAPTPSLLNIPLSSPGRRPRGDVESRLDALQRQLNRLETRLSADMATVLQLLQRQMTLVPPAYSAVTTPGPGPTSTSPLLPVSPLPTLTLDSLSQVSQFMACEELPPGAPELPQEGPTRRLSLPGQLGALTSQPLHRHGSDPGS
row,Structure (SMILES),"hERG current change (%, negative = inhibition) at 1uM [%]"
1,NS(=O)(=O)c1ccc2c(c1)oc(=O)c1cc(S(N)(=O)=O)ccc12,1.79
2,CC(=O)c1c(C)[nH]c(C(=O)Nc2cc(C)cc(C)c2)c1C,2.12
3,COc1ccccc1NC(=O)Nc1nc(CC(=O)NCc2cccnc2)cs1,13.4
4,COc1cc2c(=O)n(CC3CCCO3)c(=O)n(CC(=O)Nc3cccc(Cl)c3)c2cc1OC (stereo not drawn),14.5
5,CCN(CC)c1nc(-c2ccc(Cl)cc2)cc(C(F)(F)F)c1C#N,-0.0575
6,O=C(CNC(=O)c1ccccc1)OCC(=O)N1N=C(c2ccc(Cl)cc2)CC1c1ccco1 (stereo not drawn),-28
7,Cc1ccc(C(=O)NCc2ccccn2)c(Cl)c1,20.6
8,COC1(NC(=O)c2ccccc2)C(C)=CC(=O)C=C1C,10.8
9,COc1ccc2cc(C#N)c(N3CCOCC3)nc2c1,11.3
10,O=C(c1ccccc1)N1CCC(CC2CC(c3cccc(Br)c3)=NO2)(C(=O)NCC2CCCCC2)CC1 (stereo not drawn),11.4
11,CCOCCCNC(=S)Nc1cc(C)cc(C)c1,10.6
12,CCOC(=O)C(Cc1c[nH]c2ccccc12)NC(=O)c1ccco1 (stereo not drawn),8.56
13,COCCNC(=O)/C(C#N)=C/c1cc(C)n(C2CCCCC2)c1C,12
14,CCc1ccc(/C=C2/SC(N3CCOCC3)=NC2=O)cc1,0.86
15,O=c1[nH]c(=O)n(Cc2ccccc2)c(O)c1/C=N/Nc1c(F)c(F)c(F)c(F)c1F,10.5
16,CCOC(=O)c1c(S(=O)(=O)N2CCCCC2C)c(C)n(C)c1C (stereo not drawn),17
17,O=Nc1c2nc3ccccc3n(O)c-2c2ccccc12,4.98
18,Cc1cc(Cl)c(S(=O)(=O)NCc2cccnc2)cc1OCC(N)=O,11.5
19,O=C1N/C(=N/O)S/C1=C/c1cccnc1,6.06

row,Structure (SMILES),"hERG current change (%, negative = inhibition) at 1uM [%]"
1,CCOC(=O)c1ccc(NC(=O)CCc2c(C)nc3ncnn3c2C)cc1,-31.4
2,CCOc1ccc(C(=O)NCCC(=O)N2CCC3(CC2)NCCc2[nH]cnc23)cc1OCC,14
3,O=C(NCCc1ccccc1)C(c1ccc(F)cc1)N(C(=O)c1csnn1)C1CC1 (stereo not drawn),10.6
4,O=C(c1cc2nc(-c3ccccc3)cc(C(F)(F)F)n2n1)N1CCN2CCCC2C1 (stereo not drawn),-2.99
5,CCOC(=O)C1C(=O)NCC2CCCC21 (stereo not drawn),9.43
6,COc1ccc(N(CC(=O)NCc2ccccc2)S(C)(=O)=O)cc1,9.77
7,Cc1ccc(C(=O)NNC(=O)C(C)Oc2ccccc2F)cc1S(=O)(=O)N1CCOCC1 (stereo not drawn),13.5
8,CCN1C(=O)/C(=C2/C(=O)N3c4c(cc(OC(C)=O)cc42)C(C)=CC3(C)C)SC1=S,0.484
9,O=C(Cn1cnc2ccccc2c1=O)Nc1nc2ccccc2s1,17.7
10,O=C(CSc1ncccn1)Nc1ccc2c(c1)CCC2,12.2
11,COc1ccccc1N(CC(=O)N1CCCCCC1)S(C)(=O)=O,16.4
12,COc1cc(C(=O)NCCSc2ccc(Cl)cc2)cc(OC)c1OC,11.4
13,CC(C)NC(=O)c1nn(C)c2ccccc12,11.5
14,O=C(Cn1c(=O)n(CCCC(=O)NC2CCCC2)c(=O)c2ccccc21)NCCC1=CCCCC1,4.7
15,N/C(=N\OC(=O)Cc1ccccc1)c1ccccn1,7.47
16,Cc1ccc(S(=O)(=O)N(C)C)cc1NC(=O)COC(=O)Cc1ccsc1,-44.4
17,CCC(C(=O)NCCN1CCOCC1)n1nc(C)n2c(cc3sccc32)c1=O (stereo not drawn),12
18,COC(=O)COc1ccc2oc(=O)cc(C)c2c1,6.84
19,O=C(COC(=O)[C@@H]1CC(O)CN1S(=O)(=O)c1ccccc1[N+](=O)[O-])Nc1ccc2ccccc2c1 (stereo partly drawn),7

row,Structure (SMILES),"hERG current change (%, negative = inhibition) at 1uM [%]"
1,Cc1cc(C)cc(NC(=O)CSc2nc(N)c(NC(=O)c3cccs3)c(=O)[nH]2)c1,17.1
2,O=C(COc1ccc(C(=O)c2ccccc2)cc1)NCC1CCCCC1,5.16
3,CCSc1nc(NCCN(C)C)c2c3c(sc2n1)COC(C)(CC)C3 (stereo not drawn),11
4,CC(=O)N1CCN(c2ccc(NC(=O)c3ccccc3C)cc2)CC1,8.99
5,CCOc1ccc(S(=O)(=O)NCCC(=O)N2CCCC(C)C2)cc1 (stereo not drawn),-6.39
6,Cc1cccc(C(=O)OCC(=O)Nc2ccc3c(c2)OCCO3)c1,11.7
7,O=c1c2ccccc2nc(/C=C/c2ccc(O)cc2)n1CCc1ccccc1,5.45
8,Cc1ccc(Oc2ccccc2NC(=O)C2=COCCO2)cc1,1.58
9,O=C(c1cn2ccccc2n1)N1CCc2c([nH]c3ccccc23)C1c1ccccn1 (stereo not drawn),14.7
10,CCCCOC(=O)Nc1cc(C)c(Cl)cc1OC,2.85
11,CCCCC(CC)C(=O)Nc1cccc(SC)c1 (stereo not drawn),8.47
12,COc1cc(/C=N\Nc2cc(=O)n(C)c(=O)n2C)ccc1O,8.51
13,COc1ccc(C(=O)N2CCCC(c3nc(-c4cccs4)no3)C2)cc1OC (stereo not drawn),-10.9
14,CCN(CC)S(=O)(=O)c1cc(NC(=O)COC(=O)Cn2cnc3ccccc32)ccc1C,8.44
15,O=C(Nc1nc(-c2ccc(S(=O)(=O)N3CCCC3)cc2)cs1)c1ccco1,12.7
16,O=C(O)c1[nH]c2ccc([N+](=O)[O-])cc2c1-c1ccccc1,5.9
17,O=C1Nc2ccc(S(=O)(=O)NCCC3=CCCCC3)c3cccc1c23,0.674
18,O=C(N/N=C/c1ccc(OC(F)F)cc1)c1ccc(CSc2nc3ccccc3[nH]2)cc1,3.48
19,N=c1c2c3c(sc2ncn1N)CCC3,11.5
